# Out of some 52,000 compounds screened, about 1,700 (3.3%) were called active. Rule as the data show it: active = survival mostly below about 52% (no sharp cut-off); inactive = mostly above about 56%. The list shows a part of the results.
# Tested on: Wild type
# Assay: S. aureus survival, RN4220 and DeltatarO strains – OD600, teichoic acid synthesis inhibitors, primary screen (AID 463173)
# Settings: S. aureus RN4220 wild type/DeltatarO growth, OD600, 18 h, stronger effect = lower value, screened at 18.75 µg/mL (by protocol)
row,Structure (SMILES),survival
1,CC1CCN(CCCNC(=O)CN2C(=O)CSc3ccc(S(=O)(=O)N4CCOCC4)cc32)CC1,inactive: 71%
2,COc1ccc(NC(=O)c2cc3c(=O)n(Cc4cccnc4)ccc3nc2C)c(OC)c1,inactive: 88%
3,Cc1ccc(NC(=O)c2c(C)oc3ncn(CC(C)C)c(=O)c23)nc1,inactive: 129%
4,Cc1ccc2nc3c(cc(C(=O)NCc4ccco4)c(=N)n3C(C)C)c(=O)n2c1,inactive: 81%
5,CCSc1nc(NC(C)=O)nn1C(C)=O,inactive: 103%
6,Cc1cccc(CN2C(=O)c3ccccc3S(=O)(=O)c3ccc(C(=O)NC4CCCCC4)cc32)c1,inactive: 91%
7,COc1cccc2c(=O)cc(C)[nH]c12,inactive: 108%
8,CC(NC(=O)CSc1nc(-c2ccccc2F)nc2cc(=O)[nH]n12)c1nc2ccccc2n1C (stereo not given),inactive: 78%
9,CN1/C(=C2/SC(=O)N(Cc3ccccc3)C2=O)Sc2ccccc21,inactive: 118%
10,O=C(Nc1ccc(N2CCOCC2)c(C(=O)O)c1)c1ccc(Br)cc1,active: 0%
11,Cc1ccc(CNC(=O)Cn2ccn(-c3ccc(F)cc3)c(=O)c2=O)cc1,inactive: 83%
12,CCC(=O)N1CCCc2cc(S(=O)(=O)N3CCC(C(=O)Nc4ccc(C#N)cc4)CC3)ccc21,inactive: 140%
13,Cc1cccc2c(=O)cc(CSc3ccccc3NC(=O)C(C)(C)C)[nH]c12,inactive: 124%
14,CCOC(=O)c1cc(S(=O)(=O)NCc2ccc(OC)cc2)[nH]n1,inactive: 72%
15,COc1ccc(OCc2ccc(-c3nc(C#N)c(NCc4cccnc4)o3)o2)cc1,inactive: 81%
16,CCCC(=O)Nc1ccccc1C(=O)OCc1cc(=O)n2nc(C(C)C)sc2n1,inactive: 125%
17,CC(=O)c1cccc(NC(=O)Cn2cc(C(=O)c3cccc(Cl)c3)c(=O)c3ccc(C)nc32)c1,inactive: 75%
18,COc1ccc(OC)c(S(=O)(=O)N2CCN(Cc3nc4ccc(C)cc4o3)CC2)c1,inactive: 71%
19,CCN(C(=O)Cn1c(=O)n(Cc2ccc3c(c2)OCO3)c(=O)c2ccc(C(=O)NC3CCCCC3)cc21)c1cccc(C)c1,inactive: 86%
20,COC(=O)c1ccc(-n2c(/C=C/c3cc(OC)c(OC)c(OC)c3)nc3cc(Cl)ccc3c2=O)cc1,inactive: 71%
21,Cc1cc(C)cc(NC(=O)N2CCN(C(=O)c3nsc4ccccc34)CC2)c1,inactive: 78%
22,COc1cc(NC(=O)Cn2nnnc2-c2ccccc2F)cc(OC)c1OC,inactive: 86%
23,Cc1ccc(CNC(=O)CCc2nc3cccnc3n2Cc2ccccc2)cc1,inactive: 86%
24,CC(=O)Nc1ccc(NC(=O)C(NS(=O)(=O)c2ccc(Br)s2)c2ccccc2)cc1 (stereo not given),inactive: 78%
25,Cc1ccc(Cn2cc(S(=O)(=O)c3ccc(Cl)cc3)c(=O)c3cc4c(cc32)OCO4)cc1,inactive: 90%
26,COc1ccc(-c2cc3ccc(O)c(CN4CCCCC4C)c3oc2=O)cc1OC (stereo not given),inactive: 76%
27,CCOc1ccc2nc(N(Cc3cccnc3)C(C)=O)sc2c1,inactive: 70%
28,Cc1ccc(OCCSc2nc3ccc(NC(=O)c4ccco4)cc3s2)cc1,inactive: 94%

row,Structure (SMILES),survival
1,O=C(CCNS(=O)(=O)c1ccc2c(c1)CCN2C(=O)C1CC1)N1CCN(c2cccc(C(F)(F)F)c2)CC1,inactive: 75%
2,CCCc1ccc(OC(C)c2nc(-c3ccc(-n4cccc4)cc3)no2)cc1 (stereo not given),inactive: 56%
3,COCc1oc2ccc(NS(=O)(=O)c3ccc(C)cc3)cc2c1C(=O)OC,inactive: 73%
4,CC(=O)N1CCc2cc(S(=O)(=O)NC(Cc3ccccc3)C(=O)NCc3ccccc3Cl)ccc21 (stereo not given),inactive: 72%
5,Cn1c(=O)n(C)c2cc(N3CCOCC3)c(NS(=O)(=O)c3ccc(Cl)cc3)cc21,inactive: 93%
6,COc1ccccc1N1CCN(C(=O)c2cc3c(-c4ccccc4F)nn(C)c3s2)CC1,inactive: 28%
7,Cc1ccc(-n2c(=O)c3c(cnn3C)n(CC(=O)Nc3cccc(C)c3)c2=O)cc1,inactive: 70%
8,CCOC(=O)C1CCN(C(=O)CSc2n[nH]c(-c3ccc(OC)cc3)n2)CC1,inactive: 136%
9,CCOC(=O)Cn1c(CN2CCN(c3ccc(OC)cc3)CC2)nc2c1c(=O)[nH]c(=O)n2C,inactive: 73%
10,Cc1cc(=O)n(Cc2c(F)cccc2Cl)c2c1c(C)nn2C,inactive: 71%
11,COc1ccc(CCNC(=O)Cn2c(-c3ccc(F)cc3)cc(C(C)=O)c2C)cc1OC,inactive: 54%
12,Cc1ccc(C)c(OC(=O)CSc2nnc(-c3cccs3)o2)c1,inactive: 82%
13,COc1ccc2c(c1)CC(C(=O)NCCc1ccc(S(N)(=O)=O)cc1)CO2 (stereo not given),inactive: 71%
14,COc1cc2ccccc2cc1C(=O)N1CCN(c2nc3c(F)cc(F)cc3s2)CC1,inactive: 121%
15,CCCC(=O)Nc1cc(-c2nnc3c4ccccc4c(C)nn23)ccc1C,inactive: 72%
16,COc1ccc(-n2c(=O)c3c(c4cc(OC)ccc4n3C)n(CC(=O)N3CCCC3)c2=O)cc1,inactive: 135%
17,COc1ccc(N2CCN(CCCNC(=O)c3ccc4nc(Cc5ccccc5)oc4c3)CC2)cc1,inactive: 74%
18,CCOc1ccc(CNC(=O)C2CCCN(c3nn4cc(-c5ccc(F)cc5)nc4s3)C2)cc1 (stereo not given),inactive: 76%
19,Cc1cc(C)cc(NC(=O)c2cccc(C(=O)Nc3cc(C)cc(C)c3)c2)c1,inactive: 143%
20,Cc1ccc(NC(=O)C(C)Sc2nc3c(c(=O)[nH]2)CCCC3)cc1Cl (stereo not given),inactive: 62%
21,CSc1cccc(NC(=O)CN2C(=O)CCc3cc(S(=O)(=O)N4CCCCC4)ccc32)c1,inactive: 49%
22,CCc1ccc(NC(=O)CCCc2nnc3n(CCCOC)c(=O)c4sccc4n23)cc1,inactive: 98%
23,CCOc1ccccc1NC(=O)CSc1ccc2nc(-c3ccccc3)cn2n1,inactive: 71%
24,O=C(COc1ccccc1Cl)N(Cc1cccc(F)c1)C1CCS(=O)(=O)C1 (stereo not given),inactive: 82%
25,CCOc1ccc(/C=N/n2nnnc2N)cc1OCC,inactive: 106%
26,CCc1ccc2oc(-c3ccc(NC(=O)c4cccc(Cl)c4Cl)cc3)nc2c1,inactive: 81%
27,O=C(Cn1cnc2c(nc3n2CCCCC3)c1=O)Nc1cccc(C(F)(F)F)c1,inactive: 89%

# — PubChem BioAssay AID463173 (ICCB-Longwood Screening Facility, Harvard Medical School, 2010)
